Reference: a collection of fitness landscapes (doi:10.1016/j.celrep.2020.107928)
The full ranking holds about 81,000 sequences; the median of “one-hybrid fitness for binding NBS DNA” is about -0.1, and the highest 2% start at about 0.36. The list shows a part of the results.

B1: Caulobacter ParB omega fusion; a variant is named by its letters at X, in order, B8GW30 (parent)
chain: MESVVVGEPGMSEGRRGLGRGLSALLGEVDAAPAQAPGEQLGGSREAPIEILQRNPDQPRRTFREEDLEDLSNSIREKGVLQPILVRPSPDTAGEYQIVAGERAWRAAQRAGLKTVPIMVRELDDLAVLEIGIIENVQRADLNVLEEALSYKVLMEKFERTQENIAQTIGKSXSHVANXMRLLXLPDEVQSYLVSGELTAXHARAIAAAADPVALAKQIIEGGLSVRETEALARKAPNLSAGKSKGGRPPRVKDTDTQALESDLSSVLGLDVSIDHRGSTGTLTITYATLEQLDDLCNRLTRGI

Variants of: B1
Assay: one-hybrid fitness for binding NBS DNA (the Noc-binding site; scaled: cognate 1, non-cognate 0); higher = stronger binding
Settings: with NBS DNA site
Procedure, shortened: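 On M9-minus-histidine containing 0.1 mM IPTG and 5 mM 3-AT, E. coli USO cells with a HIS3 reporter, site 19 bp from the promoter, grew 48 hours at 37°C to select Caulobacter ParB libraries randomised at four specificity codons. Plasmids from before and after were Illumina-sequenced, with three replicate libraries pooled and variants under 10 reads left out. Fitness is the log change in variant-to-wild-type read ratio, rescaled against cognate and non-cognate.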

Variant	one-hybrid fitness for binding NBS DNA
GMTM	≤ 0.2
CAVE	≤ 0.2
TPKY	≤ 0.2
NSTD	≤ 0.2
NMHT	≤ 0.2
ILYW	≤ 0.2
KKNA	≤ 0.2
TPLL	≤ 0.2
QAMG	≤ 0.2
LWIR	≤ 0.2
WYWS	≤ 0.2
YLHW	≤ 0.2
ANAV	≤ 0.2
KRWN	≤ 0.2
CLHS	≤ 0.2
NYIT	≤ 0.2
DDTV	≤ 0.2
PLNA	≤ 0.2
GPRH	≤ 0.2
MKNT	≤ 0.2
AIYI	≤ 0.2
RHYP	≤ 0.2
FSKG	≤ 0.2
HLRK	≤ 0.2

Variant	one-hybrid fitness for binding NBS DNA
LDSE	≤ 0.2
GQKR	0.201
GWQR	≤ 0.2
GTIC	≤ 0.2
HPYT	≤ 0.2
WYTC	≤ 0.2
KGHS	≤ 0.2
PVVK	≤ 0.2
QYAW	≤ 0.2
KMCR	≤ 0.2
PSEF	≤ 0.2
PCFG	≤ 0.2
TNDI	≤ 0.2
FRNH	≤ 0.2
LFCS	≤ 0.2
PSWF	≤ 0.2
NVNK	≤ 0.2
SFCS	≤ 0.2
ANPG	≤ 0.2
HRMH	≤ 0.2
VMSN	≤ 0.2
MHNW	≤ 0.2
TVWG	≤ 0.2
TFTL	≤ 0.2

Variant	one-hybrid fitness for binding NBS DNA
RPNF	≤ 0.2
NISA	≤ 0.2
KVSN	≤ 0.2
MAFE	≤ 0.2
QVDT	≤ 0.2
KLMP	≤ 0.2
QERV	≤ 0.2
WWHL	≤ 0.2
SHMC	≤ 0.2
SEVR	≤ 0.2
YVAR	≤ 0.2
HDAP	≤ 0.2
SAGF	≤ 0.2
SNGT	≤ 0.2
EIQR	≤ 0.2
CTLS	≤ 0.2
LHTM	≤ 0.2
PVSL	≤ 0.2
GKPE	≤ 0.2
RENL	≤ 0.2
TAMI	≤ 0.2
VWTT	≤ 0.2
LSDF	≤ 0.2
PQQK	≤ 0.2

Variant	one-hybrid fitness for binding NBS DNA
RRWV	0.261
VTAG	≤ 0.2
QSLG	≤ 0.2
NFPH	≤ 0.2
RRGE	≤ 0.2
VKFS	≤ 0.2
QIWR	0.304
FQKS	≤ 0.2
HNPN	≤ 0.2
GMYN	≤ 0.2
RLEW	≤ 0.2
AIFS	≤ 0.2
ELNF	≤ 0.2
CQGG	≤ 0.2
IAHG	≤ 0.2
GRGG	≤ 0.2
DEER	≤ 0.2
TLQA	≤ 0.2
ARKM	≤ 0.2
EMDK	≤ 0.2
SFGS	≤ 0.2
EEDS	≤ 0.2
THVI	≤ 0.2
EKIY	≤ 0.2

Variant	one-hybrid fitness for binding NBS DNA
LKVM	≤ 0.2
HMTI	≤ 0.2
PHDS	≤ 0.2
KCNA	≤ 0.2
GENR	≤ 0.2
WAER	≤ 0.2
GMDR	≤ 0.2
DQIT	≤ 0.2
QMHP	≤ 0.2
KIYG	≤ 0.2
GAAI	≤ 0.2
MAPT	≤ 0.2
QRLD	≤ 0.2
KTQL	≤ 0.2
HTDI	≤ 0.2
DACV	≤ 0.2
TYEA	≤ 0.2
YQYR	≤ 0.2
MCDS	≤ 0.2
CAGV	≤ 0.2
ASCK	≤ 0.2
SHMN	≤ 0.2
RYIV	≤ 0.2
CCCR	≤ 0.2

Variant	one-hybrid fitness for binding NBS DNA
QWLT	≤ 0.2
NPRF	≤ 0.2
PISN	≤ 0.2
MSGD	≤ 0.2
PKKS	≤ 0.2
WMTS	≤ 0.2
LANC	≤ 0.2
ASNY	≤ 0.2
AMPD	≤ 0.2
YKHL	≤ 0.2
MNGV	≤ 0.2
CRLY	≤ 0.2
MIER	≤ 0.2
KNIF	≤ 0.2
RNPN	≤ 0.2
NSKS	≤ 0.2
HFGC	≤ 0.2
ALHL	≤ 0.2
SRKH	≤ 0.2
TIIT	≤ 0.2
DSDD	≤ 0.2
GLVR	≤ 0.2
HIGT	≤ 0.2
QFIT	≤ 0.2

Variant	one-hybrid fitness for binding NBS DNA
AAMT	≤ 0.2
NPPT	≤ 0.2
DLAC	≤ 0.2
RAED	≤ 0.2
HTHN	≤ 0.2
NVGY	≤ 0.2
IWHC	≤ 0.2
IKQT	≤ 0.2
ARAF	≤ 0.2
LARH	≤ 0.2
HPAR	≤ 0.2
PMAT	≤ 0.2
NLCN	≤ 0.2
SESV	≤ 0.2
QMLQ	≤ 0.2
DTKV	≤ 0.2
HEYS	≤ 0.2
RGRG	≤ 0.2
ALVF	≤ 0.2
TLMS	≤ 0.2
LPHS	≤ 0.2
LHWK	≤ 0.2
RGVK	≤ 0.2
VPHA	≤ 0.2

Variant	one-hybrid fitness for binding NBS DNA
SVMG	≤ 0.2
PQNK	≤ 0.2
AQHK	≤ 0.2
TKYG	≤ 0.2
RYMY	≤ 0.2
LGCV	≤ 0.2
YTDA	≤ 0.2
SWPV	≤ 0.2
HPNS	≤ 0.2
NKQF	≤ 0.2
SARQ	≤ 0.2
LCQY	≤ 0.2
ADTM	≤ 0.2
LAEV	≤ 0.2
DSDE	≤ 0.2
YMLA	≤ 0.2
VLYD	≤ 0.2
HHSG	≤ 0.2
SHPC	≤ 0.2
LSGV	≤ 0.2
QSGN	≤ 0.2
SCDT	≤ 0.2
ATAH	≤ 0.2
ITLY	≤ 0.2

Variant	one-hybrid fitness for binding NBS DNA
SWQS	≤ 0.2
ECGR	≤ 0.2
QLGQ	≤ 0.2
PDLG	≤ 0.2
NCRS	≤ 0.2
FMHS	≤ 0.2
SYSL	≤ 0.2
WLSS	≤ 0.2
HRRK	≤ 0.2
VIKR	≤ 0.2
GTLY	≤ 0.2
ARPA	≤ 0.2
GYRI	≤ 0.2
GNSC	≤ 0.2
PRFC	≤ 0.2
GKEG	≤ 0.2
DFMR	≤ 0.2
AFNK	≤ 0.2
VMGS	≤ 0.2
EICR	≤ 0.2
PGRD	≤ 0.2
MQTR	≤ 0.2
IPAK	≤ 0.2
PFYA	≤ 0.2

Variant	one-hybrid fitness for binding NBS DNA
TDRT	≤ 0.2
NIYW	≤ 0.2
IKYR	≤ 0.2
TTYW	≤ 0.2
PMRF	≤ 0.2
TFYC	≤ 0.2
RYNC	≤ 0.2
RNLG	≤ 0.2
ARSW	≤ 0.2
GVLD	≤ 0.2
PDGC	≤ 0.2
KGIR	≤ 0.2
PHSC	≤ 0.2
WMLS	≤ 0.2
YPLS	≤ 0.2
LRNA	≤ 0.2
TQNF	≤ 0.2
PRHD	≤ 0.2
SWGH	≤ 0.2
EFNV	≤ 0.2
GSME	≤ 0.2
RIEE	≤ 0.2
PSHK	≤ 0.2
MKMD	≤ 0.2

Variant	one-hybrid fitness for binding NBS DNA
VDSF	≤ 0.2
GMSL	≤ 0.2
CSSF	≤ 0.2
HYIC	≤ 0.2
VTLR	≤ 0.2
PQAI	≤ 0.2
MNVE	≤ 0.2
MQND	≤ 0.2
RYNL	≤ 0.2
AGQT	≤ 0.2
PHSR	≤ 0.2
VSST	≤ 0.2
MSPR	≤ 0.2
AEGE	≤ 0.2
FAQR	≤ 0.2
DKWF	≤ 0.2
VRSC	≤ 0.2
MIPQ	≤ 0.2
MGCA	≤ 0.2
MTSY	≤ 0.2
GCML	≤ 0.2
HHES	≤ 0.2
FSPD	≤ 0.2
QHKS	0.655

Variant	one-hybrid fitness for binding NBS DNA
AEIS	≤ 0.2
KNDC	≤ 0.2
SIQY	≤ 0.2
IGYG	≤ 0.2
RWPV	≤ 0.2
RDGD	≤ 0.2
DHQL	≤ 0.2
HLSL	≤ 0.2
RFGP	≤ 0.2
CYRG	≤ 0.2
SADM	≤ 0.2
ANET	≤ 0.2
PTRS	≤ 0.2
TSAL	≤ 0.2
RIRR	0.638
LVEY	≤ 0.2
MYQK	≤ 0.2
IWTE	≤ 0.2
YFKS	≤ 0.2
QSEQ	≤ 0.2
YRSK	≤ 0.2
RAFY	≤ 0.2
LEER	≤ 0.2
FKPC	≤ 0.2

Variant	one-hybrid fitness for binding NBS DNA
QLER	0.266
NFSR	≤ 0.2
FTTC	≤ 0.2
HCMH	≤ 0.2
MDIS	≤ 0.2
RMEL	≤ 0.2
VRPL	≤ 0.2
PDMR	≤ 0.2
RPSL	≤ 0.2
DGCI	≤ 0.2
IPSG	≤ 0.2
MIQE	≤ 0.2
RTCR	0.53
QANF	≤ 0.2
ENWL	≤ 0.2
PQSR	≤ 0.2
WKKW	≤ 0.2
SGKR	≤ 0.2
